# According to PubChem BioAssay AID1745845 (National Center for Advancing Translational Sciences (NCATS), 2022):
# Out of some 360,000 compounds screened, about 2,600 (0.72%) were called active. The inconclusive results got no clear call from the source; some entries with a clear call stand among them for comparison. The call rests on the fitted dose curve; in most records, active means well fitted inhibition curve with a large enough effect; inconclusive means small, poorly fitted or top-dose-only effect; inactive means no such curve, though single readings can be large or run the other way. Potencies beside an inconclusive call are fits to weak or partial responses and may not hold up.
# Test: Primary qHTS for Inhibitors of ATXN expression; further: nearly all actives have a fitted effect of over 55% in size
# Conditions: HEK-293 ATXN2-luciferase reporter, luminescence, 24 h; activity change, negative = inhibition: at 57 µM (top of the series)
# How it was run: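 qHTS (up to 57 uM final) was run with 24 h compound exposure of reporter cells at 37 °C. Each well was multiplexed: SteadyGlo luminescence measured ATXN2-luciferase expression after a fluorogenic Gly-Phe-AFC viability readout (25 uM final).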
# On the % scale 0 is the no-effect control and ±100 the full control effect; potency means the concentration at half of the fitted maximal effect; tags describe the fitted curve by direction and shape.
SMILES,Potency,"activity change, negative = inhibition"
O=C(CSc1nc(Nc2ccccc2)nc(N2CCOCC2)n1)Nc1cc(Cl)ccc1O,"inconclusive: 25.1 µM [inhibitor, single point]",
COc1ccccc1CNc1nc(NCc2ccc(C(C)C)cc2)c2sccc2n1,active: 31.6 µM,
Fc1cccc(CNc2ncnc3ccc(-c4ccc5c(c4)OCO5)cc23)c1,"inconclusive: 28.2 µM [inhibitor, partial curve, poor fit]",
CCCCN(CC)CCNC(=O)c1cc2c(=O)[nH]c3ccc(C)cc3c2s1,,inactive: -14.4%
CCc1ccc(C(=O)NNC(=O)C2CCN(c3ncnc4sc(C)c(C)c34)CC2)cc1,"inconclusive: 28.2 µM [inhibitor, single point]",
O=C(N[C@@H]1CCC(=O)N(CC[C@H](Oc2ccccc2)c2ccccc2)CC1)OCc1ccccc1,,inactive: -33%
Cc1ccnc(NC(=O)c2ccc3c(c2)NC(=O)C(C)S3)c1 (stereo unspecified),"inconclusive: 17.8 µM [inhibitor, single point]",
COc1ccc(-c2csc(NC(=O)c3cc(C)oc3C)n2)cc1OC,"inconclusive: 8.91 µM [inhibitor, partial curve]",
O=C1SC(SCc2ccccc2)=N/C1=C\c1ccc(C(=O)O)cc1,,inactive: -20.9%
COc1ccc(CNc2nc3c(c(=O)n(Cc4ccc(F)cc4)c(=O)n3C)n2C)cc1,,inactive: -21.6%
CNC[C@H](Cc1ccccc1)NC[C@@H](Cc1cccc2ccccc12)NCCc1ccc(C)cc1,"inconclusive: 28.2 µM [inhibitor, single point]",
O=C(NNC(=O)c1cccnc1SCc1cccc([N+](=O)[O-])c1)c1ccccn1,active: 7.94 µM,
COc1ccc(Cc2[nH]n3c(=O)cc(C)nc3c2-c2ccccc2)cc1,"inconclusive: 28.2 µM [inhibitor, single point]",
COc1cccc(/C=N/NC(=O)c2ccoc2C)c1O,"inconclusive: 2.82 µM [inhibitor, full curve]",
S=C1SCN(CC2CC2)CN1CC1CC1,"inconclusive: 11.2 µM [inhibitor, partial curve, poor fit]",
Cc1ccc2[nH]c(=O)c(CN(Cc3nnnn3Cc3ccccc3)C3CCCC3)cc2c1,"inconclusive: 25.1 µM [inhibitor, single point]",
COc1ccc(-n2c(=S)[nH]c3cc(C(=O)Nc4cc(C(N)=O)ccc4OC)ccc3c2=O)c(OC)c1,,inactive: -18.2%
Cc1ccccc1-c1ccnc2c(-c3ccc(F)cc3)c(C)nn12,"inconclusive: 35.5 µM [inhibitor, single point]",
C=C1[C@@H](O)[C@@H]2O[C@]3(CC[C@H](/C=C/[C@@H](C)[C@@H]4CC(C)=CC5(O[C@H](C[C@@](C)(O)C(=O)OC)CC[C@H]5O)O4)O3)CC[C@H]2O[C@@H]1[C@@H](O)C[C@H](C)[C@H]1OC2(CCCCO2)CC[C@H]1C (stereo partly specified),"inconclusive: 12.6 µM [inhibitor, partial curve, poor fit]",
CCOc1ccccc1CN1CCNC(=O)C1CC(=O)NCCc1ccccn1 (stereo unspecified),,inactive: 5.04%
O=S(=O)(Nc1cccc2cccnc12)c1ccccc1,active: 8.91 µM,
COc1cc(NC(=O)N2CCc3nc(Nc4cc(Cl)cc(Cl)c4)ncc3C2)cc(OC)c1OC,"inconclusive: 35.5 µM [inhibitor, single point]",

SMILES,Potency,"activity change, negative = inhibition"
C=C1C(=O)[C@@]23C(CC[C@@H]1[C@H]2O)[C@@]12CO[C@]3(O)[C@@H](O)[C@@H]1C(C)(C)CC[C@@H]2O (stereo partly specified),active: 9.68 µM,
COCCNC(=S)N1CCN(c2nc(-c3ccc(F)cc3)cs2)CC1,"inconclusive: 7.52 µM [inhibitor, full curve, poor fit]",
CC(C)(C)Cc1c(-c2ccc(F)cc2)nc2ccc(Cl)cn12,,inactive: -37%
CC1CCCCN1S(=O)(=O)c1ccc(C(=O)Nc2ccccc2-c2nc3ccccc3[nH]2)cc1 (stereo unspecified),,inactive: -12.9%
Cc1ccc(NC(=O)c2cn3c4c(ccc(Cl)c4c2=O)OC(C)C3)c(C)c1 (stereo unspecified),,inactive: 5.43%
COc1cc(OC)c(NC(=O)c2cc3ccccc3cc2O)cc1Cl,"inconclusive: 22.4 µM [inhibitor, partial curve, poor fit]",
Cc1cc(=O)[nH]c(/N=C(\N)Nc2ccc3c(c2)OCCO3)n1,,inactive: 2.18%
C=C(CN(C)C)C(=O)c1cc(C)ccc1C,active: 10.6 µM,
Cc1ccc(S(=O)(=O)N2C[C@H]3n4c(=O)ccc(=O)n4C[C@H](OC(=O)NCC4CCCCC4)[C@@]3(O)C2)cc1,active: 15.8 µM,
COc1cc(-c2coc3c(C(=O)NC4CCCCC4)cccc23)ccc1O,"inconclusive: 39.8 µM [inhibitor, single point]",
C[C@H]1CN([C@@H](C)CO)C(=O)Cc2cc(NC(=O)CCC(F)(F)F)ccc2O[C@H]1CN(C)Cc1ccc(-c2ccccc2)cc1,"inconclusive: 39.8 µM [inhibitor, single point]",
Cc1cccc(NC(=O)c2c(C)cc(C)nc2SCC(=O)Nc2c(C)cc(C)cc2C)c1,,inactive: -16.7%
CC(=O)c1ccc(NC(=O)C(C)n2nc(-c3ccccc3)c3cc(Cl)ccc32)cc1 (stereo unspecified),"inconclusive: 39.8 µM [inhibitor, single point]",
COc1cc(NC(=O)Cn2ncc(Cl)c(Cl)c2=O)c(C)cc1[N+](=O)[O-],active: 26.7 µM,
Cc1cc(N2CCN(C)CC2)nc2ccc(NC(=S)N3CCC4(CC3)OCCO4)cc12,,inactive: 2%
COc1cc(C2CC(=O)N(Cc3ccc(F)cc3)c3ccccc3S2)cc(OC)c1OC (stereo unspecified),"inconclusive: 35.5 µM [inhibitor, single point]",
COc1cc(CNC2CCCC2)cc(Cl)c1OCc1ccccc1F,active: 20 µM,
CCCCN1C(=O)/C(=C2/Sc3ccccc3N2C)S/C1=N\c1ncn[nH]1,"inconclusive: 37.7 µM [inhibitor, single point]",
Cc1[nH]n(-c2ccccc2)c(=O)c1N=Nc1nccs1,active: 22.4 µM,
Cc1cc(C)n2nc(C)c(Br)c2n1,"inconclusive: 8.44 µM [inhibitor, single point]",
COc1cccc(-c2cnc3c(NC(C)=O)cc(-c4cccc(NC(C)=O)c4)cn23)c1,"inconclusive: 39.8 µM [inhibitor, single point]",
CC(=O)N1c2ccc(S(=O)(=O)N3CCC(C(=O)N4CCN(c5ccc(Cl)cc5)CC4)CC3)cc2CC1C (stereo unspecified),"inconclusive: 7.94 µM [inhibitor, full curve]",

SMILES,Potency,"activity change, negative = inhibition"
Cc1c(Cc2ccccc2)c(NCCCO)n2c(nc3ccccc32)c1C#N,"inconclusive: 0.006 µM [inhibitor, full curve, poor fit]",
Cc1ccc(NC(=O)COc2ccc(Br)cc2CO)cc1S(=O)(=O)N1CCOCC1,"inconclusive: 35.5 µM [inhibitor, single point]",
COCCn1nnnc1C(c1cccc(C#N)c1)N1CCCCCC1 (stereo unspecified),,inactive: 4.09%
CN1CCN(c2ccccc2NC(=O)c2ccc(-c3ccc(Cl)c(Cl)c3)o2)CC1,"inconclusive: 35.5 µM [inhibitor, partial curve, poor fit]",
Cc1c(C#N)c(NC(=O)CCl)n(Cc2ccc(F)cc2)c1C,"inconclusive: 18.9 µM [inhibitor, partial curve, poor fit]",
Cc1ccc(S(=O)(=O)n2cc(-c3ccccc3)c3ccccc32)cc1,,inactive: 1.9%
NC(=O)CC(NC(=O)Cc1ccc(Br)cc1)c1ccc(NCc2ccc(F)cc2)c([N+](=O)[O-])c1 (stereo unspecified),"inconclusive: 39.8 µM [inhibitor, single point]",
Cc1onc(-c2ccccc2Cl)c1C(=O)N1CCCc2ccccc21,"inconclusive: 35.5 µM [inhibitor, partial curve, poor fit]",
O=C(Nc1cccc(C(=O)Nc2ccccc2C(=O)O)c1)c1cccc(Cl)c1,,inconclusive: -41.5% [inhibitor]
CSc1cccc(NC(=O)CN2C(=O)c3ccccc3S2(=O)=O)c1,"inconclusive: 28.2 µM [inhibitor, single point]",
CCCCOP(=O)(OCCCC)C(Nc1ccc(C(=O)OCC)cc1)c1ccncc1 (stereo unspecified),,inactive: -17.1%
COc1ccc2c(c1)C(=O)N(c1ccc(C)cc1C)C(=O)C2,"inconclusive: 25.1 µM [inhibitor, single point]",
CCCC(=O)NC(c1ccc(N(C)C)cc1)c1ccc2cccnc2c1O (stereo unspecified),"inconclusive: 11.2 µM [inhibitor, single point]",
COCCNC(=O)COC(=O)/C=C/c1c(C)nn(Cc2ccc(Cl)cc2Cl)c1Cl,"inconclusive: 35.5 µM [inhibitor, single point]",
C[C@H](CO)N1C[C@H](C)[C@@H](CN(C)C(=O)Nc2ccc3c(c2)OCCO3)OCc2cnnn2CCCC1=O,,inactive: 34.9%
CC(C)(Cc1c[nH]c2ccccc12)NCC(O)COc1ccccc1C#N (stereo unspecified),"inconclusive: 35.5 µM [inhibitor, single point]",
Cc1ccc(C(=O)NC(=C(Cl)Cl)S(=O)(=O)c2ccc(Cl)cc2)cc1,"inconclusive: 37.7 µM [inhibitor, single point]",
CCOC(=O)c1c(C)nn(-c2ccc(NC(=O)c3cccs3)cc2)c1C,active: 28.2 µM,
CCc1nc(C)cn1S(=O)(=O)c1cc(Br)ccc1OC,,inactive: -14.6%
CCN1/C(=C/c2ccc3ccc(C)cc3[n+]2CC)Sc2ccccc21,"inconclusive: 10 µM [inhibitor, partial curve, poor fit]",
CC(=O)Nc1cccc(-c2ccnc3c2CC(C(=O)Nc2cccc(Oc4ccccc4)c2)O3)c1 (stereo unspecified),"inconclusive: 28.2 µM [inhibitor, single point]",
C#CCN(C[C@@H](CC(C)C)NC(=O)OC(C)(C)C)S(=O)(=O)c1ccc(Br)cc1F,"inconclusive: 39.8 µM [inhibitor, single point]",
